From the supplement of paper PMC5919970 come the findings set out here.

This assay concerns TYKNU. The assay can be described thus: fractional viability relative to vehicle; TYKNU is a high-grade serous ovarian cancer line; higher = less growth inhibition. Particulars: 72 h, genotype: OPA1 knockout (sgOPA1 #2). The gist of the method:
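Drug treatment lasted 72 h, with cells grown at 37 °C in 5% CO2 in RPMI 1640 supplemented with 10% FBS. Beforehand, TYKNU control cells or their lentiCRISPRv2 knockout derivatives had been seeded at 500 cells per well into drug-stamped 384-well plates carrying a ~2100-compound library at 2 or 10 μM, in duplicate. Viability came from Cell Titer Glo luminescence, with averaged duplicate treatment wells normalised to duplicate control wells in the same plate position.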

The structures appear in SMILES notation. Structures can show the parent of a compound that is named as a salt. The full ranking holds about 2,000 compounds; the median of “fractional viability relative to vehicle” is about 0.92, and the lowest 2% start at about 0.11. The list shows a part of the results.

Regarding `O=C(O)CCNC(=O)c1ccccc1` [Betamipron], the fractional viability reads like this: (2uM) 1.14; (10uM) 0.982.
Consider `C=C1/C(=C\C=C2/CCC[C@]3(C)[C@@H]([C@H](C)CCCC(C)C)CC[C@@H]23)C[C@@H](O)C[C@@H]1O` [Alfacalcidol], for which the fractional viability turned out to be 1.19 (2uM) and 0.804 (10uM).
`CCN(CC)CCNC(=O)c1cc(Cl)c(N)cc1OC` [MetoclopraMide HCl]: the fractional viability runs as follows: (2uM) 0.918; (10uM) 0.992.
As for `CCOc1ccc2ccccc2c1C(=O)N[C@@H]1C(=O)N2[C@@H]1SC(C)(C)[C@@H]2C(=O)O` [Nafcillin Sodium], the fractional viability by setting is: (2uM) 1; (10uM) 0.905.
As for `CC1=NN(c2ccccc2)C(=O)C1` [Edaravone], the fractional viability is 1.02 (2uM) and 0.955 (10uM).
The like results for `COc1ccccc1Oc1c(NS(=O)(=O)c2ccc(C(C)(C)C)cc2)nc(-c2ncccn2)nc1OCCO` [Bosentan] were, in that order, 0.975 and 0.973.
As for `COc1ccccc1Oc1c(NS(=O)(=O)c2ccc(C(C)(C)C)cc2)nc(-c2ncccn2)nc1OCCO` [Bosentan Hydrate], the fractional viability by setting is: (2uM) 1.07; (10uM) 0.903.
For `COc1cc2c(Oc3ccc(NC(=O)C4(C(=O)Nc5ccc(F)cc5)CC4)cc3F)ccnc2cc1OCCCN1CCOCC1`, the fractional viability (2uM) was 1.05 and the fractional viability (10uM) came to 0.161.
On to `C[S+]([O-])c1ccc(-c2nc(-c3ccc(F)cc3)c(-c3ccncc3)[nH]2)cc1` (stereo not drawn), for which the fractional viability (2uM) is 1.15 and the fractional viability (10uM) turned out to be 1.31.
Turning to `CN1CCC[C@@H]1Cc1c[nH]c2ccc(CCS(=O)(=O)c3ccccc3)cc12` [Eletriptan HBr], the fractional viability worked out at 0.776 (2uM) and 0.84 (10uM).
For `CC#CC(=O)N1CC[C@@H](n2c(=O)n(-c3ccc(Oc4ccccc4)cc3)c3c(N)ncnc32)C1`, the fractional viability reads like this: (2uM) 0.767; (10uM) 0.851.
The like results for `Cc1onc(-c2ccccc2Cl)c1C(=O)N[C@@H]1C(=O)N2[C@@H]1SC(C)(C)[C@@H]2C(=O)O` [Cloxacillin Sodium] were, in that order, 0.961 and 1.
With `C#Cc1cccc(Nc2ncnc3cc(OCCOC)c(OCCOC)cc23)c1` [Erlotinib HCl (OSI-744)], the fractional viability reads like this: (2uM) 1.13; (10uM) 0.84.
Consider `C#Cc1cccc(Nc2ncnc3cc(OCCOC)c(OCCOC)cc23)c1` [Erlotinib], for which the fractional viability (2uM) came out at 0.974 and the fractional viability (10uM) is 0.882.
The like results for `COc1ccc(Cn2ccc3ccc(C(=O)NO)cc32)cc1` were, in that order, 0.948 and 0.784.
Regarding `NS(=O)(=O)c1cc2c(cc1Cl)NC(C(Cl)Cl)NS2(=O)=O` (stereo not drawn) [Trichlormethiazide], the fractional viability is, setting by setting: (2uM) 1.22; (10uM) 0.862.
For `CN[C@@H]1[C@H](O)[C@H](NC)[C@H]2O[C@@]3(O)C(=O)C[C@@H](C)O[C@H]3O[C@@H]2[C@H]1O` [Spectinomycin HCl], the fractional viability was 1.15 (2uM) and 1.74 (10uM).
`NC(=O)c1cnc(N[C@@H]2CCCC[C@@H]2N)nc1Nc1cccc(-n2nccn2)c1` came in with a fractional viability (2uM) of 0.758 and a fractional viability (10uM) of 0.23.
The like results for `Cc1c(-c2ccccc2)oc2c(C(=O)OCCN3CCCCC3)cccc2c1=O` [Flavoxate HCl] were, in that order, 0.939 and 0.84.
For `CCCCCCOC(=O)NC(=N)c1ccc(NCc2nc3cc(C(=O)N(CCC(=O)OCC)c4ccccn4)ccc3n2C)cc1` [Dabigatran Etexilate] the same measures were 0.92 and 0.593.
The like results for `COc1ccc(O)cc1` [Mequinol] were, in that order, 0.894 and 0.891.
With `CCN(CC)CCOC(=O)c1ccc(N)cc1Cl` [Chloroprocaine HCl], the fractional viability is, setting by setting: (2uM) 0.906; (10uM) 0.824.
In the case of `Clc1ccc(C(Cn2ccnc2)OCc2ccsc2Cl)c(Cl)c1` (stereo not drawn) [Tioconazole], the fractional viability was 1.07 (2uM) and 0.85 (10uM).
Turning to `COc1cc(C(=O)N2CCC(N3CCN(C)CC3)CC2)ccc1Nc1ncc2c(n1)N(C)c1ccccc1C(=O)N2C`, the fractional viability is, setting by setting: (2uM) 0.767; (10uM) 0.649.
As to `C[C@@H](Nc1cc(F)cc(F)c1)c1cc(C(=O)N(C)C)cc2c(=O)cc(N3CCOCC3)oc12`, the fractional viability was determined as 0.947 (2uM) and 0.824 (10uM).
Take `CCOC(=O)c1cnc2ccc(-c3cncc(NS(=O)(=O)c4ccccc4)c3)cn12`: the fractional viability (2uM) worked out at 0.529 and the fractional viability (10uM) turned out to be 0.37.
Take `Cc1c(C(=O)NN2CCCCC2)nn(-c2ccc(Cl)cc2Cl)c1-c1ccc(Cl)cc1` [Rimonabant]: the fractional viability stood at 0.929 (2uM) and 0.615 (10uM).
For `COc1cc2c(cc1OC)CC(=O)N(CCCN(C)C[C@H]1Cc3cc(OC)c(OC)cc31)CC2` [Ivabradine HCl] the same measures were 1.02 and 0.967.
As to `C[C@H]1c2cccc(O)c2C(=O)C2=C(O)[C@]3(O)C(=O)C(C(N)=O)=C(O)[C@@H](N(C)C)[C@@H]3[C@@H](O)[C@@H]21` [Doxycycline Hyclate], the fractional viability was 1.45 (2uM) and 1.11 (10uM).
For `O=C(O)C(=O)O.[NH-][C@@H]1CCCC[C@H]1[NH-].[Pt+2]` [Oxaliplatin] the same measures were 1.09 and 0.865.
On to `CC(C)C(=O)Oc1ccc(CO)cc1[C@H](CCN(C(C)C)C(C)C)c1ccccc1` [Fesoterodine Fumarate], for which the fractional viability is, setting by setting: (2uM) 0.935; (10uM) 0.864.
The like results for `Cc1nn(-c2ccccc2)c(C)c1C=NN1CCN(Cc2ccccc2)CC1` were, in that order, 0.946 and 0.905.
Regarding `Cc1ccc(NC(=O)c2ccc(CN3CCN(C)CC3)cc2)cc1Nc1nccc(-c2cccnc2)n1` [Imatinib (STI571)], the fractional viability came out at 1.18 (2uM) and 1.11 (10uM).
`Cc1ccc(NC(=O)c2ccc(CN3CCN(C)CC3)cc2)cc1Nc1nccc(-c2cccnc2)n1` [Imatinib Mesylate (STI571)]: the fractional viability (2uM) is 1.14 and the fractional viability (10uM) stood at 0.828.
